Measurements reported in the supplement of paper PMC9446081.
In all, about 39,000 compounds went through this assay and about 220 (0.56%) showed activity. Some of the results follow.

System: Escherichia coli K-12 BW25113
Test: relative growth (OD600 normalised to plate interquartile mean) (fraction); higher = less growth inhibition, active = 0.2 or less
Details: 50 µM; LB; incubation time: overnight (16-24 h)
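Note: static incubation at 37 °C against the wild-type strain, values averaged over two biological replicates.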

Row | SMILES | relative growth
1 | C=CC(=O)NCCc1ccncc1 | inactive: 1.05
2 | CCS(=O)(=O)N1CC[C@]2(CC1)CN([C@H](CO)c1c2c2ccc(cc2n1C)OC)C(=O)c1cccc(c1)F | inactive: 1.01
3 | O=C(Cc1cccs1)N1c2ccccc2Sc2ccccc21 | inactive: 0.881
4 | O=C(O)Cc1ccc(-c2ccccc2)cc1 | inactive: 0.821
5 | C[C@@H]1CN([C@H](C)CO)C(=O)Cc2cc(NC(=O)Nc3ccc(C(F)(F)F)cc3)ccc2O[C@@H]1CN(C)Cc1ccncc1 | inactive: 0.99
6 | Cc1noc(C)c1NC(=O)N[C@H]1CC[C@H](CC(=O)N2CCN(C)CC2)O[C@@H]1CO | inactive: 1.01
7 | C[C@@H]1CCCCO[C@@H](CN(C)Cc2ccncc2)[C@@H](C)CN([C@@H](C)CO)C(=O)c2cc(NC(=O)Nc3ccc(F)cc3)ccc2O1 | inactive: 1
8 | CN(C)c1ccc(O)c2c1C[C@H]1C[C@H]3[C@H](N(C)C)C(=O)C(C(N)=O)=C(O)[C@@]3(O)C(=O)[C@H]1C2=O | active: 0.184
9 | CCN(CC)CC#CCOC(=O)C(O)(c1ccccc1)C1CCCCC1.Cl (stereo unspecified) | inactive: 1.05
10 | C#CCN1[C@H](/C=C/C2CC2)[C@H](Cc2ccccc2)OC(=O)[C@@H]1Cc1ccc(-n2cc(COc3ccccc3/C=C(C)/C=C/C(=O)NO)nn2)cc1 | inactive: 0.999
11 | O=C(C[C@@H]1C[C@@H]2c3cc(NC(=O)NC4CCCC4)ccc3O[C@@H]2[C@H](CO)O1)NCc1ccc(Oc2ccccc2)cc1 | inactive: 0.991
12 | Cn1c(=O)[nH]c2ncn(C)c2c1=O | inactive: 1.02
13 | CC(=O)OC1(C(C)=O)CCC2C3C=C(Cl)C4=CC(=O)C5CC5C4(C)C3CCC21C (stereo unspecified) | inactive: 1.07
14 | CSC(=N)Nc1csc(C(F)(F)F)c1-c1ccccc1 | inactive: 0.971
15 | C[C@@H]1CN([C@H](C)CO)S(=O)(=O)c2ccc(C#CC3(O)CCCC3)cc2O[C@H]1CN(C)C(=O)Cc1ccccc1 | inactive: 0.992
16 | C[C@@H]1CN([C@@H](C)CO)S(=O)(=O)c2ccc(C#Cc3ccc(F)cc3)cc2O[C@H]1CN(C)S(=O)(=O)c1ccc(F)cc1 | inactive: 1.01
17 | C[C@@H]1CN([C@@H](C)CO)C(=O)c2cc(NC(=O)NC3CCCCC3)ccc2O[C@@H](C)CCCCO[C@H]1CN(C)Cc1ccc(C(=O)O)cc1 | inactive: 1.01
18 | Cc1noc(C)c1S(=O)(=O)Nc1ccc2c(c1)C(=O)N([C@H](C)CO)C[C@H](C)[C@@H](CN(C)CC1CCCCC1)OCCCC[C@H](C)O2 | inactive: 1.02
19 | C[C@@H]1CN([C@@H](C)CO)C(=O)c2cc(NS(=O)(=O)c3ccc(Cl)cc3)ccc2O[C@@H](C)CCCCO[C@@H]1CN(C)Cc1ccccc1 | inactive: 0.99
20 | C[C@@H]1CN([C@@H](C)CO)C(=O)Cc2cc(NS(=O)(=O)c3cn(C)cn3)ccc2O[C@H]1CN(C)CC1CC1 | inactive: 0.983
21 | C[C@@H]1CCCCO[C@@H](CN(C)C(=O)C2CCCCC2)[C@@H](C)CN([C@H](C)CO)C(=O)c2cc(NS(=O)(=O)c3ccc(F)cc3)ccc2O1 | inactive: 1

Row | SMILES | relative growth
22 | CC(C)NC(=O)N(C)C[C@H]1OCCCC[C@H](C)Oc2ccc(NS(C)(=O)=O)cc2C(=O)N([C@H](C)CO)C[C@@H]1C | inactive: 1.03
23 | C[C@@H]1CCCCO[C@H](CN(C)C(=O)CCCN(C)C)[C@@H](C)CN([C@H](C)CO)C(=O)c2cc(NS(=O)(=O)c3cn(C)cn3)ccc2O1 | inactive: 0.979
24 | CO[C@@H](CN(C)S(=O)(=O)c1cccc(Cl)c1)[C@@H](C)CN([C@@H](C)CO)S(=O)(=O)c1cccc(Cl)c1 | inactive: 1.01
25 | Cc1ccc(S(=O)(=O)Nc2ccc3c(c2)C(=O)N([C@H](C)CO)C[C@@H](C)[C@@H](CN(C)Cc2ccc(C(=O)O)cc2)OCCCC[C@H](C)O3)cc1 | inactive: 1.01
26 | C[C@H](CO)N1C[C@H](C)[C@H](CN(C)C(=O)Nc2ccc(F)cc2)OCc2ccccc2-c2ccccc2C1=O | inactive: 0.998
27 | C[C@@H]1CCCCO[C@H](CN(C)Cc2ccncc2)[C@H](C)CN([C@H](C)CO)C(=O)c2cc(NC(=O)Nc3ccccc3)ccc2O1 | inactive: 0.834
28 | CC(C)c1c(O)c(-c2cc3c(c(C(C)C)c2O)CCC2C(C)(C)CCCC32C)cc2c1CCC1C(C)(C)CCCC21C (stereo unspecified) | inactive: 1.06
29 | COc1ccc(CN(C)C[C@@H]2OCCCC[C@H](C)Oc3ccc(NC(=O)Nc4ccc(F)cc4)cc3C(=O)N([C@@H](C)CO)C[C@@H]2C)cc1 | inactive: 0.964
30 | Cc1noc(C)c1NC(=O)N(C)C[C@@H]1OCCCC[C@@H](C)Oc2ccc(NC(=O)Nc3ccccc3)cc2C(=O)N([C@H](C)CO)C[C@H]1C | inactive: 1.01
31 | COCC#Cc1cnc2c(c1)C(=O)N([C@@H](C)CO)C[C@@H](C)[C@@H](CN(C)C(C)=O)O2 | inactive: 0.972
32 | N[C@H]1CCCN(Cc2cccc(O)c2)C1 | inactive: 1.01
33 | C[C@@H]1CCCCO[C@@H](CN(C)Cc2ccc(Cl)c(Cl)c2)[C@H](C)CN([C@@H](C)CO)C(=O)c2cc(NC(=O)Nc3ccc(C(F)(F)F)cc3)ccc2O1 | inactive: 1
34 | CC(C)(C)C1CCC(OC[C@@H](O)CN2CCC(CN3C(=O)c4cccc5cccc(c45)C3=O)CC2)CC1 (stereo partly specified) | inactive: 1.1
35 | COc1ccc(S(=O)(=O)N[C@@H]2C=C[C@@H](CC(=O)NCCc3ccncc3)O[C@@H]2CO)cc1 | inactive: 0.985
36 | C[C@@H]1CCCCO[C@H](CN(C)S(=O)(=O)c2ccccc2)[C@H](C)CN([C@@H](C)CO)C(=O)c2cc(NS(C)(=O)=O)ccc2O1 | inactive: 0.992
37 | CCOC(=O)CSc1nc(=O)cn[nH]1 | inactive: 1.02
38 | COc1ccc(NC(=O)N(C)C[C@H]2OCCCC[C@@H](C)Oc3ccc(NC(=O)c4ccccc4)cc3C(=O)N([C@@H](C)CO)C[C@H]2C)cc1 | inactive: 0.994
39 | CC(C)NC(=O)Nc1ccc2c(c1)CC(=O)N([C@H](C)CO)C[C@H](C)[C@@H](CN(C)Cc1ccc(Oc3ccccc3)cc1)O2 | inactive: 1.02
40 | C[C@@H]1CN([C@@H](C)CO)C(=O)Cc2cc(NC(=O)CCC(F)(F)F)ccc2O[C@H]1CN(C)S(=O)(=O)c1cccs1 | inactive: 1
41 | COCC(=O)N1C[C@H](C)[C@H](OC)CN(C)C(=O)c2ccc(NC(=O)Nc3ccccc3)cc2OC[C@@H]1C | inactive: 0.997
42 | COc1ccc(NC(=O)Nc2ccc3c(c2)C(=O)N([C@H](C)CO)C[C@H](C)[C@H](CN(C)Cc2ccncc2)OCCCC[C@H](C)O3)cc1 | inactive: 1.01

Row | SMILES | relative growth
43 | C[C@@H]1CN([C@@H](C)CO)C(=O)CCCn2nncc2CO[C@@H]1CN(C)C(=O)Nc1cccc2ccccc12 | inactive: 1.02
44 | C[C@@H]1CN([C@H](C)CO)C(=O)c2cc(NC(=O)Cn3cnnn3)ccc2O[C@@H]1CN(C)Cc1ccncc1 | inactive: 1.01
45 | COCC#Cc1ccc2c(c1)O[C@@H](CN(C)C(=O)CN(C)C)[C@@H](C)CN([C@H](C)CO)S2(=O)=O | inactive: 0.854
46 | C[C@@H]1CCCCO[C@@H](CN(C)CC2CC2)[C@H](C)CN([C@H](C)CO)C(=O)c2cc(NC(=O)CCC(F)(F)F)ccc2O1 | inactive: 1.03
47 | CN1C(=O)[C@@H]2[C@@H]3C[C@H]4[C@@H](O[C@H]1[C@H]42)[C@H]3O | inactive: 1
48 | COCC(=O)N1C[C@@H](C)[C@@H](OC)CN(C)C(=O)c2ccc(NC(=O)c3ccc(F)cc3)cc2OC[C@H]1C | inactive: 0.995
49 | O=C(C[C@H]1C[C@H]2c3cc(NC(=O)NC4CCCC4)ccc3O[C@H]2[C@@H](CO)O1)NCc1ccc(Oc2ccccc2)cc1 | inactive: 0.959
50 | CC(C)(C)[C@H]1COC(=O)[C@@H](NC(=O)OCC2c3ccccc3-c3ccccc32)CC=CC[C@@H](CC(=O)N[C@H](CO)Cc2ccccc2)C(=O)N1 | inactive: 1.02
51 | COc1ccc(S(=O)(=O)Nc2cccc3c2O[C@@H](CN(C)C(=O)NC(C)C)[C@H](C)CN([C@@H](C)CO)C3=O)cc1 | inactive: 1.02
52 | O=C(C[C@@H]1CC[C@H]2[C@@H](COC[C@@H](O)CN2S(=O)(=O)c2ccc(F)cc2)O1)NCc1ccc(Cl)c(Cl)c1 | inactive: 0.882
53 | C[C@H]1CCCCO[C@@H](CN(C)Cc2ccccc2)[C@@H](C)CN([C@@H](C)CO)C(=O)c2cc(NS(=O)(=O)c3ccc(Cl)cc3)ccc2O1 | inactive: 0.889
54 | COc1ccc(NC(=O)N(C)C[C@H]2Oc3ccc(NC(=O)CCCN(C)C)cc3C(=O)N([C@@H](C)CO)C[C@@H]2C)cc1 | inactive: 0.994
55 | C[C@@H]1CN([C@@H](C)CO)C(=O)c2cc(-c3cccc(C(=O)N(C)C)c3)cnc2O[C@@H]1CN(C)S(=O)(=O)c1ccc(F)cc1 | inactive: 1
56 | C[C@H]1CN([C@@H](C)CO)C(=O)c2cc(NS(C)(=O)=O)ccc2O[C@@H]1CN(C)Cc1ccc(C(F)(F)F)cc1 | inactive: 1.02
57 | COc1cc2nc(N3CCCN(Cc4ccccc4)CC3)nc(NC3CCN(Cc4ccccc4)CC3)c2cc1OC | inactive: 0.916
58 | COc1ccc(NC(=O)Nc2ccc3c(c2)C(=O)N([C@H](C)CO)C[C@H](C)[C@@H](CN(C)S(=O)(=O)c2cn(C)cn2)O3)cc1 | inactive: 0.983
59 | CN(C)c1nc2ncnc(N)c2[nH]1 | inactive: 0.936
60 | C[C@@H]1CN([C@@H](C)CO)C(=O)c2cc(NS(=O)(=O)c3ccc(F)cc3)ccc2O[C@@H](C)CCCCO[C@@H]1CN(C)Cc1ccc(C(F)(F)F)cc1 | inactive: 0.992
61 | CCOCCn1c(N2CCCN(C)CC2)nc2ccccc21.O=C(O)C=CC(=O)O.O=C(O)C=CC(=O)O | inactive: 1.11
